The shares of active, inactive and inconclusive entries below differ from those in the screen. No potency is given beside an inconclusive call; the fits are too rough. Calls of active or inactive are those of the source. Calls come from the whole dose curve; as a rule, active = well fitted inhibition curve with a large enough effect in the repeat runs; inconclusive = weak or mixed curves; inactive = no such curve, though single readings can be large or run the other way.
Assay: qHTS assay to identify small molecule antagonists of the estrogen related receptor (ERR) signaling pathway (AID 1224819; note: nearly all actives have a fitted effect of over 50% in size;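 for activity change, negative = inhibition: luminescence from an ERR-driven luciferase reporter measured with One-Glo reagent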)
Details: ERR reporter cell line, luciferase inhibition; series mostly up to 46.1 µM; activity change, negative = inhibition: at the top concentration
Summary of the method: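 ERR reporter cells were plated at 2,000 cells/well and left 6 h at 37 C/5% CO2 before pin-tool transfer of compounds in DMSO. After 18 h at 37 C, One-Glo was added and luminescence was read 30 min later at room temperature.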
% is set by controls: 0 for no effect and ±100 for the full control effect; potency is the fitted concentration of half-maximal effect; tags give direction and shape of the fitted curve.

Compound | Potency | activity change, negative = inhibition
C=CCN1CCc2c(cc(O)c(O)c2Cl)C(c2ccccc2)C1 (centres undefined) | inconclusive [inhibitor] | 
Cc1nn(-c2ccccc2)c(C)c1/C=N/N1CCN(Cc2ccccc2)CC1 | inconclusive [inhibitor] | 
COc1cc(C(O)C(=O)O)ccc1O (centres undefined) |  | inactive: 23.8%
COc1ccc(CCn2nnnc2C2(c3ccc(C)cc3)CC2)cc1 | inconclusive [inhibitor] | 
COc1ccc(Br)cc1S(=O)(=O)NC(=O)/C=C/c1ccccc1Cc1ccc2ccccc2c1 |  | inactive: 23.1%
c1ccc2c(c1)CC(N1CCN(c3cccc4c3OCCO4)CC1)C2 | inconclusive [inhibitor, partial curve, poor fit] | 
Cn1ncc(S(=O)(=O)Cc2ccccc2)c(Br)c1=O |  | inactive: 21.4%
COc1ccc(NC(=O)c2ccc(-c3ccc(-c4noc(C)n4)cc3C)cc2)cc1N1CCN(C)CC1 | inconclusive [inhibitor, partial curve, poor fit] | 
Cn1cnc2c(NCc3ccccc3)nc(NCCO)nc21 |  | inactive: 20.5%
COc1cc(/C=C(\C#N)C(=O)c2ccc(O)c(O)c2)cc(I)c1O |  | inactive: 13.3%
CC#CCOC(=O)c1c(C)nc2sc3c(c2c1N)CCC(O)C3 (centres undefined) | inconclusive [inhibitor] | 
C[C@@]1(C2CCCC2)Cc2cc(OCC(=O)O)c(Cl)c(Cl)c2C1=O | inconclusive [inhibitor] | 
Oc1cc2c(cc1O)CN(C(=S)NCCc1ccc(Cl)cc1)CCC2 | inconclusive [inhibitor] | 
c1ccc(CN2CCC3(CCCc4ccccc43)CC2)cc1 | inconclusive [inhibitor] | 
C[C@H](NC(=O)/C(C#N)=C/c1ccc(O)c(O)c1)c1ccccc1 |  | inactive: -1.41%
COc1ccccc1N1CCN(CCN(C(=O)C2CCCCC2)c2ccccn2)CC1 | inconclusive [inhibitor] | 
O=c1ccc2c(OCCCCc3ccccc3)c3ccoc3cc2o1 | inconclusive [inhibitor] | 
COCCOc1cc2ncnc(Cl)c2cc1OCCOC | inconclusive [inhibitor] | 
CC(=O)[C@H]1CCC2C3CC=C4C[C@@H](OS(=O)(=O)O)CC[C@]4(C)C3CC[C@@]21C (some centres undefined) |  | inactive: 14.8%
C[C@H](Cc1ccccc1)Nc1ncnc2c1ncn2[C@@H]1O[C@H](CO)C(O)[C@H]1O (some centres undefined) |  | inactive: 32%

Compound | Potency | activity change, negative = inhibition
C[C@@H](CN1CCC(Cc2ccccc2)CC1)[C@@H](O)c1ccc(O)cc1 | inconclusive [inhibitor] | 
O=C(Nc1ccncc1)c1cc([N+](=O)[O-])ccc1Cl | inconclusive [inhibitor, single point] | 
CN1CCC2(CCN3CCc4c(oc5ccccc45)C3C2)N(C)C1=O (centres undefined) | inconclusive [inhibitor] | 
O=C(CCc1ccncc1)NNC(=O)N1Cc2ccccc2Oc2ccc(Cl)cc21 | inconclusive [inhibitor, single point] | 
O=c1[nH]c2cc(C(F)(F)F)ccc2n1-c1cc(C(F)(F)F)ccc1O | inconclusive [inhibitor] | 
O=C1NC(c2cccc([N+](=O)[O-])c2)=CCN1c1ccccc1O | inconclusive [inhibitor] | 
CC(C)N(CCC(=O)c1ccc2ccccc2c1)Cc1ccccc1 | inconclusive [inhibitor] | 
CC(=O)O[C@H]1Cc2ccccc2N(C(N)=O)c2ccccc21 |  | inactive: 23.2%
C[C@@H](N)C1CCC(C(=O)Nc2ccncc2)CC1 (some centres undefined) | inconclusive [inhibitor] | 
N=C(N)c1ccc(N)cc1 | inconclusive [inhibitor, single point] | 
Cn1cc(C(F)(F)F)nc1-c1ccc(OCC(O)CNCCOc2ccc(O)c(C(N)=O)c2)cc1 (centres undefined) | inconclusive [inhibitor] | 
Fc1ccc2[nH]c(CN3CCN(c4ccccn4)CC3)cc2c1 | inconclusive [inhibitor, single point] | 
CN(C)C(=O)[C@H](O)[C@H](Cc1ccccc1)NC(=O)c1cc2cc(Cl)ccc2[nH]1 | inconclusive [inhibitor, partial curve, poor fit] | 
COc1ccc(NC(=O)/C=C/c2ccc(Cl)cc2)cc1 |  | inactive: 0.588%
COc1ccc(/C=C/C(=O)Nc2ccccc2C(=O)O)cc1OC |  | inactive: -70.7%
CN1CCc2cc(NC(=O)Nc3cccnc3)ccc21 |  | inactive: 47.9%
c1ccc(C(NCCNC(c2ccccc2)c2ccccc2)c2ccccc2)cc1 | inconclusive [inhibitor] | 
COC(=O)[C@H](NC(=O)c1cc(-c2ccccc2)nc2ccccc12)c1ccccc1 | inconclusive [inhibitor] | 
O=[N+]([O-])c1ccc(CNc2nc(NCc3cccc(C(F)(F)F)c3)nc3nc[nH]c23)cc1 | inconclusive [inhibitor] | 
